PubChem BioAssay AID485344 (National Center for Advancing Translational Sciences (NCATS), 2010)
In all, about 340,000 compounds went through this assay and about 6,900 (2%) were called active. No stated cut-off is given here; in the data, active means inhibition above about 30%; inactive means below that, where a call was filed. The entries are a selection whose mix differs from that of the whole data set. Where no call is shown, the source filed none.

Target: D(2) dopamine receptor (Homo sapiens) (UniProt P14416)
Sequence of UniProt P14416 (P14416 whole entry, looked up): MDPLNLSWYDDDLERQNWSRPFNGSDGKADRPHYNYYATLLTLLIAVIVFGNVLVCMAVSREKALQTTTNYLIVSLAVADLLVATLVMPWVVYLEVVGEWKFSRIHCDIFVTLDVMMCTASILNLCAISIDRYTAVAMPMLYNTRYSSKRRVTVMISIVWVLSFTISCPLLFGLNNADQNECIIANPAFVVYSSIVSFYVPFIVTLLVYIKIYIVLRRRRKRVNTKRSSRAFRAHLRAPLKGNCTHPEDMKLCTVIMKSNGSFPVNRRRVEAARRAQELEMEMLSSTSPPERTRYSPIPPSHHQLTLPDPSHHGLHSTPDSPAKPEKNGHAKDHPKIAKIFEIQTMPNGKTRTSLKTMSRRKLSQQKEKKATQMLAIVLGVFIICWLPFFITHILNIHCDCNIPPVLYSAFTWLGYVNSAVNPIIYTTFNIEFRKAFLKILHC
Test: HTS Assay for Allosteric Antagonists of the Human D2 Dopamine Receptor: Primary Screen for Antagonists; further: 0% is about no effect
Conditions: HEK293 TREx D2 cells, calcium flux, dopamine EC80; at 10 µM; stronger effect = higher value
Summary of the method: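 HEK293 T-REx D2 cells, tet-induced, calcium dye no-wash. Cpd pintool add, 180 s kinetic, then EC80 DA, 180 s kinetic. Ca flux read.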

Row | SMILES | inhibition
1 | CCOc1ccc(CNC(=O)CCCc2cn(C)c3ccccc23)cc1OC | 7.28%
2 | COC(=O)c1cc2sc(Cl)cc2n1Cc1cc(C)ccc1C | -10.7%
3 | Cc1ccc(-n2nc3c(=O)n(CC(=O)NCC(C)c4ccccc4)nc(C)c3c2C)cc1 (configuration not stated) | -10.9%
4 | COc1ccc(Cn2ccc3nc(C)c(C(=O)NCc4cccc(OC)c4)cc3c2=O)cc1 | -5.11%
5 | CCc1ccccc1NC(=O)Cn1c2ncccc2c(=O)n1-c1ccccc1 | 2.54%
6 | Nc1ccc(N2CCN(CCCCN3C(=O)C4CCCN4C3=O)CC2)cc1 (configuration not stated) | active: 42.4%
7 | COc1ccc(OC)c(NC(=O)NCc2ccc(F)cc2)c1 | active: 38.9%
8 | Cc1c(C)n(C)c2ccc(C(=O)NCc3cccc(F)c3)cc12 | 19%
9 | CCOC(=O)CSc1nnc2n(-c3ccccc3)c(=O)c3c4c(sc3n12)CC(C(C)(C)C)CC4 (configuration not stated) | -6.91%
10 | COc1cc2c(cc1NC(=O)COc1ccc(Cl)cc1Br)oc1ccccc12 | 9.01%
11 | Cc1ccc(Nc2c(-c3ccsc3)nc3c(C)cccn23)cc1 | 16.6%
12 | COc1ccccc1CNC(=O)Cn1ncn2c(cc3sccc32)c1=O | -18.6%
13 | COc1ccc(S(=O)(=O)NCc2cccn2Cc2cccc(C)c2)cc1 | -1.23%
14 | COc1ccccc1NC(=O)CC(c1cc(OC)c(OC)c(OC)c1)N1Cc2ccccc2C1=O (configuration not stated) | 9.41%
15 | CCCCCSc1nc2sc3c(c2c(=O)n1-c1ccc(OC)cc1)CCN(C(C)=O)C3 | 9.49%
16 | COc1ccc(S(=O)(=O)c2c(C(=O)c3ccc(C)c(C)c3)cnc3ccc(F)cc23)cc1 | 0.488%
17 | COc1ccccc1C(=O)Nc1ccnn1C1CCN(Cc2cn(C)c3ccccc23)CC1 | active: 61.6%
18 | CC(C)c1ccc(OCC(=O)Nc2c(C(=O)c3ccc(F)cc3)oc3ccccc23)cc1 | -3.94%
19 | O=S(=O)(Nc1cccc(C(F)(F)F)c1)c1ccc(-c2cnc(C3CC3)o2)cc1 | -7.65%
20 | CC(=O)N1CCc2cc(S(=O)(=O)NCCCN3CCN(Cc4ccccc4)CC3)ccc21 | active: 43.8%
21 | Cc1ccc(-n2nnc(-c3nc(-c4cccs4)no3)c2N)c(C)c1 | -0.0295%
22 | COC(=O)CSc1nc2sc3c(c2c(=O)n1-c1ccccc1C)CC(C)(C)OC3 | -14.4%
23 | Clc1ccc(-c2nc3c4cnn(-c5ccccc5Br)c4ncn3n2)c(Cl)c1 | 12%
24 | Cc1ccc(OCC(=O)OC2=C(C(=O)c3ccccc3)N(C)S(=O)(=O)c3ccccc32)cc1 | 0.36%
25 | CCc1ccc(NS(=O)(=O)c2cc(-c3cnc(C4CC4)o3)ccc2C)cc1 | 11%

Row | SMILES | inhibition
26 | Cc1ccccc1NC(=O)c1sc2nc3n(c(=O)c2c1C)CCC3 | 16.6%
27 | Cc1oc(-c2ccc(C(=O)NCCC(C)C)cc2)nc1CN1CCc2ccccc21 | -7.95%
28 | COc1ccccc1CNC(=O)CC(c1ccc(C)cc1)N1Cc2ccccc2C1=O (configuration not stated) | 0.422%
29 | Cc1cc(C)cc(NC(=O)C2CCCN2S(=O)(=O)c2ccc3c(c2)CCCC(=O)N3)c1 (configuration not stated) | 5.03%
30 | COc1ccc(CCNC(=O)CCS(=O)(=O)c2cc(Br)cc3c2N(C(C)=O)CC3)cc1OC | -20.8%
31 | Cc1cc(C)cc(-n2ccn(Cc3ccccc3C)c(=O)c2=O)c1 | 18.1%
32 | Cc1ccc(CNC(=O)C2COc3ccccc3C2)cc1 (configuration not stated) | 1.17%
33 | COc1ccc2c(c1)Cc1sc(NC(=O)c3cccc(C)c3)nc1-2 | 1.03%
34 | CCc1ccccc1NC(=O)Cn1c(=O)n(-c2ccc(CC(=O)NCC3CCCO3)cc2)c(=O)c2ccccc21 (configuration not stated) | -2.39%
35 | COc1ccc(CNC(=O)c2ccc3c(c2)N(Cc2ccc(C)cc2)CCS3)cc1 | 7.45%
36 | Cc1ccccc1C(=O)Nc1ccc2nc(SCC(=O)N3CCc4ccccc43)sc2c1 | -14.8%
37 | COc1cccc(-n2c(=O)c3sccc3n(CC(=O)NC3CCCCC3)c2=O)c1 | active: 30.5%
38 | CCOC(=O)c1cnc2nc(NCc3cccc(Br)c3)[nH]n2c1=O | -7.39%
39 | CCOC(=O)c1ccc(NC(=O)CN2CCN(C(=O)c3ccco3)CC2)cc1 | active: 67.4%
40 | COc1ccccc1CNS(=O)(=O)c1ccc(-c2cnc(C3CC3)o2)cc1 | 14.8%
41 | COCCNC(=O)c1c[nH]c2ccc(S(=O)(=O)Nc3ccc(F)cc3F)cc2c1=O | 11.2%
42 | CCc1ccc(C2=NN(CCC(=O)NCCc3ccc(OC)c(OC)c3)C(=O)CC2)cc1 | 4.3%
43 | CCCOc1ccc(-c2nonc2NC(=O)c2cc(OC)c(OC)c(OC)c2)cc1OCCC | -6.84%
44 | CC(C)c1nn2c(=O)cc(COC(=O)c3cccc(NC(=O)c4cccs4)c3)nc2s1 | 7.14%
45 | Cc1ccc(N2CC(NC(=O)c3cc4ccccc4o3)CC2=O)cc1C (configuration not stated) | 4.11%
46 | CCc1ccccc1NC(=O)CCOc1ccccc1 | -1.54%
47 | COc1cc(C2c3c(oc4ccccc4c3=O)C(=O)N2c2ccccn2)cc(OC)c1OC (configuration not stated) | -6.01%
48 | COC(=O)[C@@H]1[C@H]2C[C@H]3c4[nH]c5ccccc5c4CCN3C[C@@H]2CC[C@@H]1O | active: 58.1%
49 | CCCc1nn2c(=O)cc(COC(=O)c3ccccc3NC(=O)c3cccs3)nc2s1 | 8.41%
50 | COc1ccc(N(Cc2cccs2)C(=O)c2ccc(OCC(C)C)cc2)cc1 | 3.35%

Row | SMILES | inhibition
51 | Cc1ccc(C)c(C(=O)c2c(N)c(-c3nc(-c4ccc5c(c4)OCO5)cs3)c3ccccn23)c1 | -1.38%
52 | Cc1cccc(NC(=O)C2CCC(CNS(=O)(=O)c3ccc(Br)s3)CC2)c1 (configuration not stated) | 26%
53 | COc1cccc(C2CC(=O)N(c3ccc(F)cc3)C3=C2C(=O)OC3)c1OC (configuration not stated) | -7.53%
54 | Cc1ccc(OCC(=O)Nc2ccc(Cl)c(-c3nc4ncccc4o3)c2)c(C)c1 | 1.77%
55 | Cc1cn2c(=O)cc(COc3ccc(Cl)cc3)nc2s1 | -16.4%
56 | COc1cc(NC(=O)Nc2cccc(-c3noc(C)n3)c2)cc(OC)c1OC | 23.3%
57 | CCOc1ccc(-n2c(=O)c3c(C)c(C)sc3n(CC(=O)N(CC)Cc3ccccc3)c2=O)cc1 | -3.26%
58 | Cc1ccc(Cl)cc1NC(=O)Cc1ccc(-n2c(C)nc3cccnc32)cc1 | 9.98%
59 | CCOc1ccc(CNc2nc3nc(C)c(Cc4ccccc4)c(=O)n3[nH]2)cc1 | -1.44%
60 | COc1ccc2c(c1)CC(C(=O)Nc1cc(Cl)ccc1C)CO2 (configuration not stated) | 0.972%
61 | CCc1ccc(CNC(=O)C2Cc3cc(S(=O)(=O)N4CCCCCC4)ccc3N2C(C)=O)cc1 (configuration not stated) | -13.4%
62 | COc1cccc(Nc2cc(C)nc3nc(-c4ccc(Cl)cc4)nn23)c1 | -4.67%
63 | N#Cc1c(N)n(-c2cccc(Cl)c2)c2nc3ccccc3nc12 | -3.1%
64 | Cc1nn2c(=O)cc(COc3ccc(/C=C(\C#N)C(=O)Nc4ccc(F)cc4)cc3)nc2s1 | 20.9%
65 | Cc1nn(C)c2c1c(-c1ccccc1)cc(=O)n2CC(=O)Nc1ccccc1C(F)(F)F | -3.76%
66 | CCOC(=O)COc1ccccc1C1C(C(=O)OC)=C(C)NC2=C1C(=O)c1ccccc12 (configuration not stated) | -12.6%
67 | COc1cc(NC(=O)CSc2nc3ccccc3nc2Cc2ccc(Cl)cc2)cc(OC)c1 | -13.4%
68 | COCCCNC(=O)CSc1nc2c(sc3ccccc32)c(=O)n1CCc1ccccc1 | -15.9%
69 | Cc1nc2c(c(C)c1CCC(=O)NCc1ccccc1)c(=O)n(C)c(=O)n2C | -1.93%
70 | CCOC(=O)c1cccc(NC(=O)c2cc3c(-c4cccc(OC)c4)nn(C)c3s2)c1 | 18.6%
71 | CC(C)(C)c1ccc(OCC(=O)Nc2ccc(S(=O)(=O)Nc3ncccn3)cc2)cc1 | -23.9%
72 | Cc1ccc(S(=O)(=O)c2nc(S(C)(=O)=O)sc2N(C)Cc2ccccc2)cc1 | -3.47%
73 | Cc1cccc(NC(=O)C2CCC(CNS(=O)(=O)c3csc(C(N)=O)c3)CC2)c1C (configuration not stated) | 3.96%
74 | COc1ccc2nc(NC(=O)c3nc(SC(C)C)ncc3Cl)sc2c1 | -2.8%
75 | O=C(NC1CCCC1)c1cc(Nc2cccc(C(F)(F)F)c2)nc2ccccc12 | -7.64%

Row | SMILES | inhibition
76 | CCC(=O)N1CCc2cc(Br)cc(S(=O)(=O)CCC(=O)N3CCN(c4ccccc4F)CC3)c21 | -9.68%
77 | O=C(C1CCN(S(=O)(=O)Cc2ccccc2)CC1)N1CCN(c2ccccc2)CC1 | 15.1%
78 | CCOC(=O)c1cccc(NS(=O)(=O)c2ccc(-c3cnc(C4CC4)o3)cc2)c1 | 5.35%
79 | NC(=O)c1nc(Nc2ccccc2)sc1NC(=O)c1ccccc1Br | 7.02%
80 | S=C(NC1CCCCC1)NC1CC2CCC(C1)N2Cc1ccccc1 (configuration not stated) | active: 76.9%
81 | COc1ccc2c(c1)Sc1ccccc1N2CCN(C)C | active: 40%
82 | Cc1ccc(OCC(=O)Nc2ccc3nc(SCC(=O)N4CCOCC4)sc3c2)cc1 | -2.83%
83 | CC(=O)c1c(C)[nH]c(C(=O)N(C)CC(=O)Nc2ccc(Cl)c(C(F)(F)F)c2)c1C | active: 39.3%
84 | COc1ccccc1NC(=O)CSc1ncc2c(n1)-c1cc(Cl)ccc1N(Cc1ccccc1)S2(=O)=O | -5.65%
85 | CCCCNC(=O)CCCn1c(=O)c2ccccc2n(Cc2cccc(Cl)c2)c1=O | 0.525%
86 | Cn1c(CN2CCCCC2)nc2cc(NC(=O)c3ccccc3Cl)ccc21 | -2.94%
87 | COc1ccc(OC)c(CNC(=O)C2CCN(c3nc4ccccc4nc3C(F)(F)F)CC2)c1 | 1.25%
88 | Cc1ccc(C)n1-c1nnc(N2CCCC(C(=O)NCc3cccc(F)c3)C2)s1 (configuration not stated) | -4.98%
89 | Cc1ccc2[nH]c3c(=O)n(CC(=O)N4CCCCC4)ncc3c2c1 | -3.58%
90 | Clc1ccc(C(c2ccccc2)c2c[nH]c3ccccc23)s1 (configuration not stated) | -2.27%
91 | Nc1cc(=O)[nH]c(SCC(=O)Nc2cc(Cl)cc(Cl)c2)n1 | active: 30.1%
92 | COc1cc(OC)cc(-c2cc3nc(C)c(CCC(=O)NCc4ccc(Cl)cc4)c(C)n3n2)c1 | -2.03%
93 | Cc1cc2oc(=O)cc(C)c2c2occ(-c3ccc(Cl)cc3)c12 | -0.542%
94 | COc1ccc(C(=O)Nc2ccc(-n3nncc3-c3ccccc3)cc2)cc1OC | -23.1%
95 | Cc1cccc(N2CCN(C(=O)Cn3ncc4c5ccccc5n(C)c4c3=O)CC2)c1C | 4.92%
96 | CCOC(=O)N1CCN(S(=O)(=O)c2c(C)cc(C)cc2C)CC1 | active: 54%
97 | CCOC(=O)c1cc(OC(=O)c2ccccc2C)n(-c2ccccc2)n1 | 5.49%
